# Read counts are not given, so values of variants with three or more changes are uncertain.
# B1: LINE1-mini (parent)
# chain: GGCAGAGCUCAACACAGCGUGGCAAAGUGGCUGUGGCUAGACUGCC
# Variants of: B1
# Assay: self-cleavage, relative activity (ratio to wild type); higher = more cleavage; in vitro, sequencing; the parent is a self-cleaving ribozyme
row,Variant,self-cleavage
1,G7A G27U G36U,0.01
2,G7A C15G G19U,0.24
3,G7A U32G U34G C42A,0.01
4,G7C A14U U32C G40A C42U,0.01
5,G7A C10G G33U,0.03
6,A6U U28A G29C G30U,0.17
7,G7C C10U G27U G33U A39U,0.02
8,G7A A25G G40U,0.03
9,G7A C13U C23A G27C U43A C46U,0.55
10,G7C C10A A25C U34C G35U C37U C42A G44A,0
11,G7A A12C C15U C45U,0.04
12,G7A G19C C37U C45G,0.01
13,G7A C10A A24G U34A A39U C45G,0.04
14,G7C C10A U34C C37A,0.04
15,G7C C18A G22C A26G G35A,0.03
16,G7A C10A C13A,0.06
17,G7C C18G U43G,0.05
18,G7C A24C G29C G40U G44C C45G C46A,0.01
19,G7C C10G C13G,0
20,A6U U20C G22U G29U,0.21
21,G7A U20G C42G,0.06
22,A6U G21A A25C,1.35
23,G7C C23G G29A,0.07
24,G7C C15G G19U C45U,0.08

row,Variant,self-cleavage
1,G7A A26U G40U A41U U43G,0.51
2,G7C C23U C37U,0.05
3,A6U U9A C13U U32A G33U G40U,0.04
4,G7C C31G U34A,0.02
5,G7A U9G C18A C31U,0.03
6,G7A G40A G44A,0.11
7,G7C C18A G19C,0.09
8,G7C A25U U38G A41U,0
9,G7C C15G G29U,0.07
10,G7C C18A G21C,0.06
11,G7A C8U U9A A16U G19A,0.09
12,A6U G21U C31G,0.27
13,A6U G22U U34C,0.17
14,G7A C31U U38G G44A,0.02
15,G7C C18U U43C C45G,0.09
16,G7C C15G C45U,0.09
17,G7A G36U G40C,0.19
18,G7A U20A G27U G30C C31G C46A,0.05
19,G7C C8A G22A G27C A41C,0.14
20,G7A C13G G17U G22U A25C G30A,0.08
21,G7A A16G A26U,0.12
22,G7C C15G A41C U43G,0.08
23,G7C G17C A41U,0.11
24,A6U U34A C42U,0.37

row,Variant,self-cleavage
1,A6U G29C C42A,0.05
2,G7C C10G G17U C46G,0.02
3,G7C A24C G35U,0.15
4,G7C C8G A12U A41C,0.36
5,A6U G35U G40A,0.27
6,G7A A24G G40U C46U,0.04
7,G7A G22C A25G C46A,0.08
8,G7C G17U C18A C23U A25U,0.05
9,G7A U9C A25G A26C C31U,0.04
10,G7A U9A G22U C23G A26C,0.36
11,G7C C23G C46A,0.14
12,A6U G21A A26U,0.74
13,G7A C15A G35U U38G G40C,0.2
14,G7A G22A A25G G27A,0.15
15,G7A C10G A11C A24G G33U,0.01
16,G7A G29U C46U,0.08
17,G7A A25U U32A C45A,0.12
18,G7A C8U C18A A39U,0.02
19,G7A A11C C45G,0.02
20,G7C C10A A11C C31U,0.01
21,G7A G17A G44U,0.01
22,A6U G27A U28A G30A A39U,0.52
23,G7C A24C G27U G30C,0.36
24,G7C A12U C31U C46A,0.09

row,Variant,self-cleavage
1,G7A G40U C45A,0.26
2,G7C C23U U43C,0.07
3,G7A U28A C45U,1.01
4,G7A G35A G36U,0.24
5,G7A G17C G33U,0.06
6,G7A G27A U34A G40U,0.02
7,G7A C13U U20A,0.77
8,G7A C18U G19U G21U,0.54
9,A6U G40U U43G,0.02
10,G7A A14C C18A G36C,0.02
11,G7C C8U U38G,0.04
12,G7C C10U G29U G30U,0.06
13,G7C A16U A25G G30U,0.03
14,G7A C15G A25U U32G,0.23
15,G7A C23G U43C,0.02
16,G7A G36C C37A,0.02
17,G7A A24C G27U,0.02
18,G7A G17C G30A,0.43
19,G7C C23A C42U,0.3
20,G7C C8G C23A A26G,0.44
21,A6U U20A C23A A25C C31U,0.38
22,G7C C13A C18U,0.16
23,G7C C18U C23G,0.02
24,G7C C15A G17U C18G G40C G44C,0.1

row,Variant,self-cleavage
1,G7A A25G G33C,0.04
2,G7C G17A A24U A26U,0.05
3,G7A G21A A25C G33A G35C G36C C37A,0.22
4,G7C C23U C46A,0.05
5,G7A C10A G33U C45A,0.01
6,A6U G21U C45A,0.35
7,G7C G17C U20G,0.02
8,G7A G35A C42G C46U,0.03
9,A6U G22U C23U G35A G40U,0.84
10,G7C C18G U28A,0.03
11,A6U G21A U32G,0.05
12,G7A C8A C18A G21A G33U,0.29
13,G7C C13G C42A U43G,0.02
14,G7A G21A C23A C37U,0.03
15,G7A C10U A11C C23U C37U,0.01
16,G7A U20A G22C,0.07
17,G7C C13G G21U G29U,0.13
18,G7C G17C A26C,0.05
19,A6U G21A G30A U38C,0.73
20,G7A A12C A25G,0.01
21,G7A U20C U28G G29A,0.02
22,G7C A14C C18G G33U,0.03
23,G7A C15A G36U,0.15
24,G7A C10U A12G A25C,0.01

row,Variant,self-cleavage
1,G7A C15G A39G C45U,0.12
2,G7C A16G C23U,0.08
3,G7A C13A C15U G17U U20G,0.03
4,A6U G33U U34C G40A,0.06
5,A6U U20A C37U C45U,0.08
6,G7A C8U C13U G21U,0.74
7,G7C C18A G21A U43A,0.05
8,G7C A41C C45G,0.05
9,A6U U9G A12U,0.07
10,G7C C15U G40C G44A,0.02
11,G7A C23G G33C,0.01
12,G7A C23G C46U,0.21
13,G7A G33A A41C,0.06
14,G7A A11C G17A U32A G40U,0.01
15,G7A A14C G21C U28G,0.01
16,G7C A11G C18U,0.02
17,G7A G29A C37U,0.01
18,G7A C8G C23U A26C,0.05
19,G7C C13G G17U,0
20,G7A A16C G17A G36C G40U G44A,0.02
21,G7C C18A G22C A25G,0.05
22,G7A A25G A41G,0.04
23,G7C A12U G29C U34G,0.02
24,A6U G22A C23G G27A,0.47

row,Variant,self-cleavage
1,G7A G30U U38G G44A,0.1
2,G7A A16G C37A,0.91
3,G7A A16G C37U,0.11
4,G7A G19A C23G G29U,0.02
5,G7C A12U C15A U20C C23G,0.07
6,G7A A14U G17C,0.15
7,G7C C23G C45U,0.13
8,G7A U9C C13A G21A C42A,0.02
9,G7A U9G A24U G30U C46A,0.12
10,G7A U32C U34C A41G,0.13
11,G7C C18G A25G U38A,0.02
12,G7A C8U G36C C45G,0.25
13,G7C A16C G17U,0.09
14,G7A C10U C15U C18G,0.1
15,A6U U34G C42A,0.09
16,A6U G22C G33A C45A,0.09
17,G7A G21A A39C,0.45
18,G7A C10G A11C,0.01
19,A6U G27C A41U,0.04
20,G7C C13G A26U,0.08
21,G7A C10A C18A G29U U38A,0
22,G7A A14G A16G A25G,0.03
23,G7A C8A C13A G21A G40U,0.28

# Source: the RNAGym collection of RNA variant scans (doi:10.7554/elife.90254)
